{
  "source": "paper PMC6919601",
  "about": "“Identification of Plasmodium dipeptidyl aminopeptidase allosteric inhibitors by high throughput screening” (PLoS ONE, 2019)",
  "note": "Hit rate of the full screen: of about 110,000 compounds, about 230 (0.21%) showed an effect of 50% or more. Some of the results follow.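 Also: 30 min substrate incubation versus DMSO and 10 µM JCP410 controls.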",
  "data": [
    {"target": "DPAP1 (Plasmodium falciparum, UniProt Q8IIJ9)", "sequence (Q8IIJ9 whole entry, looked up)": "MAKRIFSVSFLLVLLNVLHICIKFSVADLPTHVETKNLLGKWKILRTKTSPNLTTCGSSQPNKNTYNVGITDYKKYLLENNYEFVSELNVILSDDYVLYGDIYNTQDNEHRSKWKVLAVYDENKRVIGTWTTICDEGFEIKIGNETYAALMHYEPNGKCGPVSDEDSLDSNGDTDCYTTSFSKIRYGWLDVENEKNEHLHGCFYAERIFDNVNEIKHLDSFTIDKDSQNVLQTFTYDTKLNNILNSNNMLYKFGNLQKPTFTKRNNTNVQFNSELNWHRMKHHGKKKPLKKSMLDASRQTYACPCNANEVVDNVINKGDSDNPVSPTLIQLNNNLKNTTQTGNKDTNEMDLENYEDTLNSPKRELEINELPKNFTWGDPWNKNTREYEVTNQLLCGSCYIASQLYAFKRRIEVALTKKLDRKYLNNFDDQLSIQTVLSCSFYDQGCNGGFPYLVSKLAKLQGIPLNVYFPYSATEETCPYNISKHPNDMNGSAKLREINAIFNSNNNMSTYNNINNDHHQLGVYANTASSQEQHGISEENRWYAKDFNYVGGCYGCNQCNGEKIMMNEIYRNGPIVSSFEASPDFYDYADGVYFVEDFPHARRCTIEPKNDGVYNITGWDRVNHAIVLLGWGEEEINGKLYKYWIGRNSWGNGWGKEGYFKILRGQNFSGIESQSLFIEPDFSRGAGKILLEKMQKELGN", "experiment": "primary screen, percent inhibition; read by cleavage of a fluorogenic dipeptide substrate; higher = more effect of the substance", "design": "species or system P. falciparum D10 trophozoite lysates; single well", "units": {"% Inhibition @ 10 uM": "%"}, "values": [
      {"smiles": "CCOC(=O)c1[nH]nc2c1COc1ccccc1-2", "% Inhibition @ 10 uM": 4.33},
      {"smiles": "COc1ccc(OC)c(NC(=O)COc2cccc(C)c2)c1", "% Inhibition @ 10 uM": 4.49},
      {"smiles": "CCN1CCN(C(=O)c2cnc(SC)nc2-c2ccccc2)CC1", "% Inhibition @ 10 uM": 6.76},
      {"smiles": "O=C(NCc1ccccc1)/C(=C\\c1ccc(Cl)cc1)NC(=O)c1ccccc1", "% Inhibition @ 10 uM": 2.01},
      {"smiles": "CCOc1ccccc1NC(=O)c1ccco1", "% Inhibition @ 10 uM": 2.65},
      {"smiles": "Clc1ccc2nc(Cl)c3nnnn3c2c1", "% Inhibition @ 10 uM": 5.43},
      {"smiles": "CC(NC(=O)c1sc2nc(N)c(C#N)cc2c1N)C12CC3CC(CC(C3)C1)C2", "note": "(stereo not drawn)", "% Inhibition @ 10 uM": 7.39},
      {"smiles": "CCOc1ccccc1C(=O)NCCC(C)C", "% Inhibition @ 10 uM": -1.95},
      {"smiles": "Cc1nn(-c2ccccc2)c2sc(-c3nnc(S)o3)cc12", "% Inhibition @ 10 uM": 64.9},
      {"smiles": "Cc1ccc(SCCC(=O)N2CCN(c3ccccc3F)CC2)cc1", "% Inhibition @ 10 uM": 3.29},
      {"smiles": "CSCCC(/N=C/C1=C(O)CC(C)(C)CC1=O)C(=O)O", "note": "(stereo not drawn)", "% Inhibition @ 10 uM": 1.52},
      {"smiles": "O=C(Nc1ccc(S(=O)(=O)N2CCc3ccccc32)cc1)c1ccco1", "% Inhibition @ 10 uM": 4.67},
      {"smiles": "Cc1c(C(=O)OCC(C)(C)CN(C)C)oc2ccccc12", "% Inhibition @ 10 uM": 0.685},
      {"smiles": "O=C(Nc1cccc(NC(=O)c2ccncc2)n1)c1ccncc1", "% Inhibition @ 10 uM": 1.64},
      {"smiles": "COc1cc(CN2CCC(O)CC2)cc(OC)c1", "% Inhibition @ 10 uM": -1.22},
      {"smiles": "Cc1ccc(CN2CCN(c3ccc([N+](=O)[O-])cc3)CC2)o1", "% Inhibition @ 10 uM": -2.95},
      {"smiles": "COc1ccccc1/C=C/C1=NC(=C\\c2cc(Br)cs2)/C(=O)O1", "% Inhibition @ 10 uM": 0.997},
      {"smiles": "CC1CCc2c(sc(NC(=O)C3c4ccccc4Oc4ccccc43)c2C(N)=O)C1", "note": "(stereo not drawn)", "% Inhibition @ 10 uM": 0.658},
      {"smiles": "CCOC(=O)N1CCC(NCCc2c[nH]c3ccccc23)CC1", "% Inhibition @ 10 uM": -3.6},
      {"smiles": "COc1ccc(NC(=O)Cc2ccc(F)cc2)cc1", "% Inhibition @ 10 uM": 2.84},
      {"smiles": "COc1ccc(CC(=O)Nc2nnc(C3CCCCC3)s2)cc1OC", "% Inhibition @ 10 uM": 3.54},
      {"smiles": "CCc1ccc(CNC(=O)C2CCN(S(=O)(=O)CC)CC2)cc1", "% Inhibition @ 10 uM": -4.83},
      {"smiles": "CCC(CC)C(=O)Nc1ccccc1OC", "% Inhibition @ 10 uM": -2.76},
      {"smiles": "Cc1nn(CC(=O)NCCCN2CCOCC2)c(=O)c2c1sc1ccccc12", "% Inhibition @ 10 uM": -3.43},
      {"smiles": "C1CCC(C2NCCN3CCCC23)CC1", "note": "(stereo not drawn)", "% Inhibition @ 10 uM": -3.6},
      {"smiles": "CC12CCC(C(=O)N(c3nc4c(s3)CCCC4)C1=O)C2(C)C", "note": "(stereo not drawn)", "% Inhibition @ 10 uM": -3.5},
      {"smiles": "CC(C)c1ccc(S(=O)(=O)C2C(=O)N(C)C34CCCCC3C2c2ccccc2O4)cc1", "note": "(stereo not drawn)", "% Inhibition @ 10 uM": 0.953},
      {"smiles": "CCC(=O)c1ccc(OCC(=O)c2ccc(Br)cc2)cc1", "% Inhibition @ 10 uM": 0.323},
      {"smiles": "CC(C)(C)c1ccc(S(=O)(=O)Nc2ccc(C(=O)NCc3ccco3)cc2)cc1", "% Inhibition @ 10 uM": 0.161},
      {"smiles": "Cn1c(=O)[nH]c(=O)c2c1nc(CN1CCN(Cc3ccccc3)CC1)n2CCc1ccccc1", "% Inhibition @ 10 uM": 30.2},
      {"smiles": "CCn1c2c(c(=O)[nH]c1=O)C(c1cccc3ccccc13)C1=C(O)c3ccccc3C1=N2", "note": "(stereo not drawn)", "% Inhibition @ 10 uM": 4.08},
      {"smiles": "COc1cc(/C=C2\\Sc3ccccc3C2=O)ccc1OCC(=O)O", "% Inhibition @ 10 uM": -1.26},
      {"smiles": "Cc1cccc(-c2cc(C(=O)NCCCN3CCOCC3)c3ccccc3n2)c1", "% Inhibition @ 10 uM": -10.6},
      {"smiles": "O=C(NCCc1ccc(Cl)cc1)c1coc(=O)c2ccccc12", "% Inhibition @ 10 uM": -5.17},
      {"smiles": "C(=C\\c1ccccc1)/CN1CCN(Cc2ccc(OCc3ccccc3)cc2)CC1", "% Inhibition @ 10 uM": -3.42},
      {"smiles": "C=CCSc1nnc(NC(=O)Cc2coc3ccc(C)cc23)s1", "% Inhibition @ 10 uM": 1},
      {"smiles": "COCCCNC(=O)/C(C#N)=C/c1c(Oc2cccc(C)c2)nc2c(C)cccn2c1=O", "% Inhibition @ 10 uM": 3.63},
      {"smiles": "CC(=O)c1ccc(C(=O)N(CCN(C)C)c2nc3cc(C)cc(C)c3s2)cc1", "% Inhibition @ 10 uM": 5.85},
      {"smiles": "Cc1sc(NC(=O)C2CCCO2)nc1-c1ccccc1", "note": "(stereo not drawn)", "% Inhibition @ 10 uM": -1.59},
      {"smiles": "COc1ccc(C)cc1N(CC(=O)Nc1ccc2c(c1)OCO2)S(=O)(=O)c1ccc(C)cc1", "% Inhibition @ 10 uM": 3.35},
      {"smiles": "COc1ccccc1OCC(=O)NC1CCS(=O)(=O)C1", "note": "(stereo not drawn)", "% Inhibition @ 10 uM": -3.75},
      {"smiles": "O=C(CCn1nc(-c2ccccc2)ccc1=O)NCCCN1CCC(Cc2ccccc2)CC1", "% Inhibition @ 10 uM": -5.43},
      {"smiles": "COc1ccc(CN(C)CCN(C)C)c(OC)c1", "% Inhibition @ 10 uM": 1.42},
      {"smiles": "COc1ccccc1/C=C1\\SC(=O)N(CCC(=O)Nc2ccc(S(N)(=O)=O)cc2)C1=O", "% Inhibition @ 10 uM": -3.84},
      {"smiles": "COc1ccc(CCn2c(C)c3c(C)nn4cc(-c5ccc(C)o5)cc4c3c2C)cc1OC", "% Inhibition @ 10 uM": 5.35},
      {"smiles": "CCCCN(C)C(=O)Cn1nc(Cc2cccnc2)c2ccccc2c1=O", "% Inhibition @ 10 uM": -6.52},
      {"smiles": "CSc1ccc(CCNC(=O)Cn2ccc3cc(S(=O)(=O)N4CCCCC4)ccc32)cc1", "% Inhibition @ 10 uM": 3.47},
      {"smiles": "CC1CN(CC(=O)Nc2sc3c(c2C#N)CCCC3)CC(C)O1", "note": "(stereo not drawn)", "% Inhibition @ 10 uM": -4.49},
      {"smiles": "O=C(NCc1cccs1)C(Cc1ccccc1)n1cccc1", "note": "(stereo not drawn)", "% Inhibition @ 10 uM": -2.42},
      {"smiles": "Cc1c(CC(=O)NCc2ccccc2)c(=O)oc2cc3occ(C(C)(C)C)c3cc12", "% Inhibition @ 10 uM": 4.13},
      {"smiles": "CCSC1=N/C(=C\\c2ccc(C(=O)O)cc2)C(=O)S1", "% Inhibition @ 10 uM": -2.07}
    ]}
  ]
}
